Assay results as given in the supplement of paper PMC7238544.
Structures can show the parent of a compound that is named as a salt. ± gives the standard deviation of the averaged measurements. Some of the results follow.

system: hAMSC donor 1; test: transgenic luciferase activity (RLU/mg protein) fold change vs vehicle control (ratio); hAMSC are human adipose-derived mesenchymal stem cells given an EGFP-luciferase plasmid by lipofection; higher = more transgene expression; settings: priming compound concentration 100 µM
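Also: compounds in DMSO added 30 min before Lipofectamine 3000 transfection of pEGFP-Luc in 96-well plates, values are means of triplicate wells over DMSO vehicle wells on the same plate.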

Structure (SMILES) | transgenic luciferase activity
Nc1nnc(-c2cccc(Cl)c2Cl)c(N)n1 [Lamotrigine] | 1.41 ± 0.18
COCC1=C(C(=O)OC(C)OC(=O)OC(C)C)N2C(=O)[C@@H](NC(=O)/C(=N\OC)c3csc(N)n3)[C@H]2SC1 (some centres undefined) [Cefpodoxime proxetil] | 1.14 ± 0.15
CCn1cc(C(=O)O)c(=O)c2ccc(C)nc21 [Nalidixic acid] | 3.28 ± 2.2
O=C(N[C@H](CO)[C@H](O)c1ccc([N+](=O)[O-])cc1)C(Cl)Cl [Chloramphenicol] | 12.2 ± 2.6
C#C[C@]1(O)CC[C@H]2[C@@H]3[C@H](C)CC4=C(CCC(=O)C4)[C@H]3CC[C@@]21C [Tibolone] | 0.372 ± 0.2
Cc1nnc(SCC2=C(C(=O)O)N3C(=O)[C@@H](NC(=O)Cn4cnnn4)[C@H]3SC2)s1 [Cefazolin sodium] | 1.6 ± 0.58
CN(C)CC/C=C1/c2ccccc2COc2ccc(CC(=O)O)cc21 [Olopatadine hydrochloride] | 0.526 ± 0.13
O=C1CN(/N=C/c2ccc([N+](=O)[O-])o2)C(=O)N1 [Nitrofurantoin] | 0.745 ± 0.5
CC(Oc1c(Cl)cccc1Cl)C1=NCCN1 (centres undefined) [Lofexidine hydrochloride] | 1.74 ± 0.63
CC(=O)SCC(Cc1ccccc1)C(=O)NCC(=O)OCc1ccccc1 (centres undefined) [Racecadotril] | 0.507 ± 0.22
COc1cccc2c1C(=O)c1c(O)c3c(c(O)c1C2=O)C[C@@](O)(C(=O)CO)C[C@@H]3O[C@H]1C[C@H](N)[C@H](O)[C@H](C)O1 [Doxorubicin hydrochloride] | 0.000327 ± 0.00011
CC1(C)S[C@@H]2[C@H](/N=C/N3CCCCCC3)C(=O)N2[C@H]1C(=O)O [Mecillinam] | 0.867 ± 0.22
C[C@]12CC[C@@H]3c4ccc(OS(=O)(=O)O)cc4CC[C@H]3[C@@H]1CCC2=O [Estrone 3-sulfate sodium salt] | 0.942 ± 0.56
CC(C)NCC(O)COc1ccc(CC(N)=O)cc1 (centres undefined) [Atenolol] | 3.08 ± 1.8
Cc1cc2c(s1)Nc1ccccc1N=C2N1CCN(C)CC1 [Olanzapine] | 0.62 ± 0.33
C[C@H](CCC(=O)O)[C@H]1CC[C@H]2[C@@H]3C(=O)C[C@@H]4CC(=O)CC[C@]4(C)[C@H]3CC(=O)[C@]12C [Dehydrocholic acid] | 0.949 ± 0.3

Structure (SMILES) | transgenic luciferase activity
COc1cc(C(=O)NS(=O)(=O)c2ccccc2C)ccc1Cc1cn(C)c2ccc(NC(=O)OC3CCCC3)cc12 [Zafirlukast] | 0.285 ± 0.021
CN(C)CCc1c[nH]c2ccc(C[C@H]3COC(=O)N3)cc12 [Zolmitriptan] | 2.92 ± 1.6
O=C(O)Cc1ccccc1Nc1c(Cl)cccc1Cl [Diclofenac sodium] | 1.43 ± 0.51
O=C(O)c1cc(/N=N/c2ccc(S(=O)(=O)Nc3ccccn3)cc2)ccc1O [Sulfasalazine] | 1.48 ± 0.78
CC1(C)O[C@@H]2C[C@H]3[C@@H]4C[C@H](F)C5=CC(=O)C=C[C@]5(C)[C@@]4(F)[C@@H](O)C[C@]3(C)[C@]2(C(=O)CO)O1 [Fluocinolone acetonide] | 7.86 ± 4.2
CC(=O)CCCCn1cnc2c1c(=O)n(C)c(=O)n2C [Lomifylline] | 1.1 ± 0.58
CCc1nc(N)nc(N)c1-c1ccc(Cl)cc1 [Pyrimethamine] | 1.01 ± 0.075
COc1cc2nc(N3CCN(C(=O)C4CCCO4)CC3)nc(N)c2cc1OC (centres undefined) [Terazosin] | 1.01 ± 0.6
CNC(=C[N+](=O)[O-])NCCSCc1csc(CN(C)C)n1 [Nizatidine] | 0.732 ± 0.14
CC(=O)O[C@H]1C[C@@H]2CC[C@@H]3[C@H](CC[C@@]4(C)[C@H]3C[C@H]([N+]3(C)CCCCC3)[C@@H]4OC(C)=O)[C@@]2(C)C[C@@H]1N1CCCCC1 [Vecuronium bromide] | 1.74 ± 0.98
c1ccc(CC2=NCCN2)cc1 [Priscoline hydrochloride] | 0.854 ± 0.57
CCCCNC(=O)NS(=O)(=O)c1ccc(C)cc1 [Tolbutamide] | 0.755 ± 0.21
Nc1ncn([C@@H]2O[C@H](CO)[C@@H](O)[C@H]2O)c(=O)n1 [5-Azacytidine] | 1.44 ± 0.5
C[C@]12CCC(=O)C=C1CC[C@@H]1[C@@H]2C(=O)C[C@@]2(C)[C@H]1CC[C@]2(O)C(=O)CO [Cortisone] | 0.371 ± 0.17
CN1CC(=O)N2[C@H](c3ccc4c(c3)OCO4)c3[nH]c4ccccc4c3C[C@@H]2C1=O [Tadalafil] | 2.79 ± 1.2

system: hAMSC donor 2; test: as above; settings: priming compound concentration 100 µM

Structure (SMILES) | transgenic luciferase activity
CN1CCN(c2nc3cc(C(F)(F)F)ccc3n3cccc23)CC1 | 0.0241 ± 0.014
CN1C(C(=O)Nc2ccccn2)=C(O)c2ccccc2S1(=O)=O [Piroxicam] | 0.38 ± 0.24
CC(=O)N1CCN(c2ccc(OCC3COC(Cn4ccnc4)(c4ccc(Cl)cc4Cl)O3)cc2)CC1 (centres undefined) [Ketoconazole] | 3.48 ± 0.2
CN(C)C(=O)C(CCN1CCC(O)(c2ccc(Cl)cc2)CC1)(c1ccccc1)c1ccccc1 [Loperamide hydrochloride] | 0.0661 ± 0.055
CN(CCO)CC(O)Cn1cnc2c1c(=O)n(C)c(=O)n2C (centres undefined) [Xanthinol nicotinate] | 1.05 ± 0.26
CCC1=C(C)CN(C(=O)NCCc2ccc(S(=O)(=O)NC(=O)N[C@H]3CC[C@H](C)CC3)cc2)C1=O [Glimepiride] | 0.91 ± 0.15
CN(C)c1ccc(O)c2c1C[C@H]1C[C@H]3[C@H](N(C)C)C(O)=C(C(N)=O)C(=O)[C@@]3(O)C(O)=C1C2=O [Minocycline hydrochloride] | 0.759 ± 0.059
Nc1nnc(-c2cccc(Cl)c2Cl)c(N)n1 [Lamotrigine] | 0.899 ± 0.25
COCC1=C(C(=O)OC(C)OC(=O)OC(C)C)N2C(=O)[C@@H](NC(=O)/C(=N\OC)c3csc(N)n3)[C@H]2SC1 (some centres undefined) [Cefpodoxime proxetil] | 0.774 ± 0.27
CCn1cc(C(=O)O)c(=O)c2ccc(C)nc21 [Nalidixic acid] | 0.296 ± 0.12
O=C(N[C@H](CO)[C@H](O)c1ccc([N+](=O)[O-])cc1)C(Cl)Cl [Chloramphenicol] | 2.88 ± 0.6
C#C[C@]1(O)CC[C@H]2[C@@H]3[C@H](C)CC4=C(CCC(=O)C4)[C@H]3CC[C@@]21C [Tibolone] | 1.1 ± 0.11
Cc1nnc(SCC2=C(C(=O)O)N3C(=O)[C@@H](NC(=O)Cn4cnnn4)[C@H]3SC2)s1 [Cefazolin sodium] | 0.939 ± 0.41
CN(C)CC/C=C1/c2ccccc2COc2ccc(CC(=O)O)cc21 [Olopatadine hydrochloride] | 1 ± 0.16
O=C1CN(/N=C/c2ccc([N+](=O)[O-])o2)C(=O)N1 [Nitrofurantoin] | 0.307 ± 0.067
CC(Oc1c(Cl)cccc1Cl)C1=NCCN1 (centres undefined) [Lofexidine hydrochloride] | 1.32 ± 0.14
CC(=O)SCC(Cc1ccccc1)C(=O)NCC(=O)OCc1ccccc1 (centres undefined) [Racecadotril] | 0.725 ± 0.49
COc1cccc2c1C(=O)c1c(O)c3c(c(O)c1C2=O)C[C@@](O)(C(=O)CO)C[C@@H]3O[C@H]1C[C@H](N)[C@H](O)[C@H](C)O1 [Doxorubicin hydrochloride] | 0.000887 ± 0.00071
CC1(C)S[C@@H]2[C@H](/N=C/N3CCCCCC3)C(=O)N2[C@H]1C(=O)O [Mecillinam] | 0.859 ± 0.24

Structure (SMILES) | transgenic luciferase activity
C[C@]12CC[C@@H]3c4ccc(OS(=O)(=O)O)cc4CC[C@H]3[C@@H]1CCC2=O [Estrone 3-sulfate sodium salt] | 0.919 ± 0.12
CC(C)NCC(O)COc1ccc(CC(N)=O)cc1 (centres undefined) [Atenolol] | 1.39 ± 0.32
Cc1cc2c(s1)Nc1ccccc1N=C2N1CCN(C)CC1 [Olanzapine] | 0.853 ± 0.25
C[C@H](CCC(=O)O)[C@H]1CC[C@H]2[C@@H]3C(=O)C[C@@H]4CC(=O)CC[C@]4(C)[C@H]3CC(=O)[C@]12C [Dehydrocholic acid] | 2.02 ± 0.32
COc1cc(C(=O)NS(=O)(=O)c2ccccc2C)ccc1Cc1cn(C)c2ccc(NC(=O)OC3CCCC3)cc12 [Zafirlukast] | 0.684 ± 0.034
CN(C)CCc1c[nH]c2ccc(C[C@H]3COC(=O)N3)cc12 [Zolmitriptan] | 1.44 ± 0.21
O=C(O)Cc1ccccc1Nc1c(Cl)cccc1Cl [Diclofenac sodium] | 1.38 ± 0.35
O=C(O)c1cc(/N=N/c2ccc(S(=O)(=O)Nc3ccccn3)cc2)ccc1O [Sulfasalazine] | 0.237 ± 0.036
CC1(C)O[C@@H]2C[C@H]3[C@@H]4C[C@H](F)C5=CC(=O)C=C[C@]5(C)[C@@]4(F)[C@@H](O)C[C@]3(C)[C@]2(C(=O)CO)O1 [Fluocinolone acetonide] | 2.96 ± 0.24
CC(=O)CCCCn1cnc2c1c(=O)n(C)c(=O)n2C [Lomifylline] | 1.05 ± 0.63
CCc1nc(N)nc(N)c1-c1ccc(Cl)cc1 [Pyrimethamine] | 0.646 ± 0.093
COc1cc2nc(N3CCN(C(=O)C4CCCO4)CC3)nc(N)c2cc1OC (centres undefined) [Terazosin] | 1.17 ± 0.43
CNC(=C[N+](=O)[O-])NCCSCc1csc(CN(C)C)n1 [Nizatidine] | 0.903 ± 0.38
CC(=O)O[C@H]1C[C@@H]2CC[C@@H]3[C@H](CC[C@@]4(C)[C@H]3C[C@H]([N+]3(C)CCCCC3)[C@@H]4OC(C)=O)[C@@]2(C)C[C@@H]1N1CCCCC1 [Vecuronium bromide] | 0.901 ± 0.18
c1ccc(CC2=NCCN2)cc1 [Priscoline hydrochloride] | 0.663 ± 0.063
CCCCNC(=O)NS(=O)(=O)c1ccc(C)cc1 [Tolbutamide] | 0.305 ± 0.053
Nc1ncn([C@@H]2O[C@H](CO)[C@@H](O)[C@H]2O)c(=O)n1 [5-Azacytidine] | 1.05 ± 0.18
C[C@]12CCC(=O)C=C1CC[C@@H]1[C@@H]2C(=O)C[C@@]2(C)[C@H]1CC[C@]2(O)C(=O)CO [Cortisone] | 0.163 ± 0.041
CN1CC(=O)N2[C@H](c3ccc4c(c3)OCO4)c3[nH]c4ccccc4c3C[C@@H]2C1=O [Tadalafil] | 1.79 ± 0.23
